The text below walks through data of paper PMC10726135.

This is one part of the list. At the low end of the ranking, values are background and their order means little. The protein was read in a cell extract, so binding may be indirect.

For the test, the target named is T1, HNF4alpha8 (COS-7 nuclear extract) (UniProt P41235-5).
T1 sequence: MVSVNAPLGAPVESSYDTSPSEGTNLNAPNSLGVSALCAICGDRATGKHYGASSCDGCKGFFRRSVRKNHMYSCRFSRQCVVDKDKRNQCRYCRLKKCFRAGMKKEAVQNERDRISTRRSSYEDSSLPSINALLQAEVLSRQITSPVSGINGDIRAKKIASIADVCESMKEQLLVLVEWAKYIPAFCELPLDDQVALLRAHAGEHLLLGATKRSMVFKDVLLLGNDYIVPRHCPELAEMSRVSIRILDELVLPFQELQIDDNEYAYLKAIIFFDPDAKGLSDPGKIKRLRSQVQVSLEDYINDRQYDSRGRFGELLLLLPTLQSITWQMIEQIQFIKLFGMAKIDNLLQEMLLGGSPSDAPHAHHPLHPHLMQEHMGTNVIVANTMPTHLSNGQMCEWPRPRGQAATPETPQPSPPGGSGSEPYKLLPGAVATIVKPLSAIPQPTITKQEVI
Put plainly: protein-binding microarray. The note with it: COS-7 nuclear extract on double-stranded Agilent 4x180k PBM; binding buffer, salt, pH and temperature not given; high values mean tight binding; double strand, one strand shown; sequences stand for … in …GCCTAGGGAGATTAGAGTATCGGTCGA
Take CCCCCGGCTCTACGCAAGTGGTACCTCCCG: the binding signal (log2 normalized intensity) is 2.76.
The result for ATAGGCAGAAGGGACTAGCCTTATCTCAGA reads -1.31; that for TTTAACCAGAGTCTACAGGTCAGACCTGTT, 2.15.
Next, CCTTTCTTTGTCTTTGCAATGTTGTCTTTT: 2.44; GATAGATTTTGCATTGCTCACATAGCTGGG: -1.01.
For the sequence TAACATGTATCAACATGTTTATCCTTCAAC, the binding signal (log2 normalized intensity) came out at 0.691.
CTGTTTCTTTGTGTGTCAACAGAGTGCTTA: the binding signal (log2 normalized intensity) was found to be 1.48.
The result for TTAGATTCCATGCAGCAGCATCCAGCCCCA reads 3.38.
The result for ATTGTCCAAGGGCTGTAGCAACCAAGTACC reads -1.27; that for TACAGTGATGTTTGTCAAATGCTTCCAAGA, -1.13.
The result for CCTCCCTGCCTTAGTCCCAGTATGGTCTCA reads 0.618; that for ATTATCTACAGAGATAACAGGCCACAACTT, -1.38.
Regarding CCTCGTGGTGCTGATCCCAGCCCCACGGCT, the binding signal (log2 normalized intensity) is -0.759.
Take GGCTGAACATGACTGGCATTCCCCTATGTC: the binding signal (log2 normalized intensity) came to 0.829.
The result for TGAGATGAAGAGGCCAGGGGCACTCTCTGT reads -1.3; that for TCAAGGCTGCCTGGCAGGGTGGGGTGGGGG, -1.24.
In the case of ATTCATCCTCCAAAACCCAGTTCATAGGTC, the binding signal (log2 normalized intensity) stood at 4.22.
Regarding AAAATTAAAGCGGACGGGCTGCGGAGGCGA, the binding signal (log2 normalized intensity) is -1.32.
The result for CATACTGAAAAAGGGTTGTGCAAACTTCAG reads 0.304.
As to CCACACAGCACGTAATAGTTCATGAAATGG, the binding signal (log2 normalized intensity) amounted to 0.614.
The result for TGGGGAAACTGTTATCTCTCAACTCAGTGA reads -1.28; that for GGACCGCCAAGGAAGCGATGGGCTGGCCCT, -1.37; that for AAGAAAGTTCAGCCCTTAGGACCAGGGGGG, -1.24.
Next, TTGGAAGCCACATTAAGTGACTTAATTATC: -1.33; AATGACACTAGCAGAAGAGACAGTCAATTA: -1.29; GCCACCATGCTCGGCTGCCTCTCCAAACAA: -1.34.
Next, GCATATGCCAACAGGTGCTCTTTATCAGCA: -1.23.
For CAGCGGTGCCTCAACCGAGCGTCCAAGCTC, the binding signal (log2 normalized intensity) was -1.29.
Next, GCCGCTGACAAGCAGCCTCAGTGGCTCACA: -1.19.
The result for CGCTAGCTTTCTGGTCTTTGTTCTTTACTT reads 2.2.
The result for TCCAGGCTTGTCCTTTTGACCACAGTTATC reads 3.01; that for ACTATTTGATGAGTCTTAGAGTCCAGACAC, 2.06.
For TGGGCATCTGCAGGGCAGCAGACTCAGAAA, the binding signal (log2 normalized intensity) is -1.31.
The result for TGAGTGAGTAGGTTCTCAGCTGACATTGGT reads 0.632; that for AATGTGACCCCTTTCATGAATAAATGACAT, 2.68.
Next, AATGACTAAGGCAGGGAAGGAGAGTGACCT: 3.75.
For TATTCATGTCCCTACCACATACAGAATCCT, the binding signal (log2 normalized intensity) was 0.521.
The result for AGAGAGGGACTAGAACTCAGTGTGAACTCA reads 1.51; that for CATGTTGGCATTCCAGGATGAAGGAAGAGG, -1.31.
AGTGGTTTAAAAACTTATCTTGTGACCTTT: the binding signal (log2 normalized intensity) was determined as 7.47.
The result for GTAGGGCAGCAGCCGGCCTCTTAACAGATG reads -1.3; that for GCATCCCAGTAGAAAAAAAAATGGGCAAAG, -1.32.
Next, GAGTACACTCAGCTGTGTCTACCCTTTTGC: 1.37; AGACAGCATAGGAAGTGGGGAAGAAGTGTT: -1.3; AGGAATTTGGCTCTAGAGGAGTCCCCTTAA: 0.669.
Next, GGGAAGGCTAGCATTCCTGCACACCTGCCT: -1.33; GCAGGGAAGGAGAGTGACCTCTGCTTGAAG: 2.67; TACAGCAGGGTAGAAAAGAGTTAAAAAAAA: -1.36.
For the sequence TCTTGTGGGCTGGGAGCTAATGAGCACATT, the binding signal (log2 normalized intensity) is -1.29.
Next, AAGGCTGTCACACTGGCCTTTGCCCTCGCT: 5.82; ATTAGTCTCTGCTGGCTTTCCACTCAGGCT: -1.2.
The result for ACAGGGGCCCAAGATAAAGGGACAGGGGTC reads 2.44; that for GAGAGGCTTATGCATGGGAGATCTTCAGTA, -0.357; that for GCAACAGGAAACAGCCTGTGTTCTCTCAAC, -1.27.
The result for AGCTCTTTCCATTTTTGCTCCTGCACTTTT reads 2.4; that for GAAAGACGAAAGGGACTTTGATCTTCTTAC, 6.37.
AGGAGCCAAAGTCCTTCCCAAGTCCTGCAT: the binding signal (log2 normalized intensity) is 2.41.
The result for GCAGGTGGCTACATGATGTCAGTTTGACTC reads 1.31.
With GTGGTCTTTATGACTTGGGTGCACCAATGA, the binding signal (log2 normalized intensity) was determined as 1.94.
The result for AAAATAGTTTCAACTTAACCCCAGTTTAGC reads 2.42.
As for CCCCTTGCTGAGTGGAAAAACACCTGGTTC, the binding signal (log2 normalized intensity) was -0.272.
Turning to TCCACAGTCAAGGCCAAAGGTTAAAAATAA, the binding signal (log2 normalized intensity) amounted to 4.8.
The result for TGATCCATTCTACCCCTGTGGTTGACCTTT reads 8.51; that for GCCCACAATTGCATGTTCAACAGACAGCTG, -1.31; that for CCTGGATGCCAGGCAAGAGCTCAGAAGCCA, -1.38.
Next, GGGATCAGCAATGCTCAGCCCACCTTTTGG: -1.39; TGTGGGTAATTAATCTGATCGCCCTCCCCC: 5.29; AGAGCACAACCTTTGGCCGTGCATGCTTGG: 2.95.
On to GAGCCCACAGTCCAGTACCATTTCCTGGTC, for which the binding signal (log2 normalized intensity) was 0.216.
For TGTGGCTAACAATATGGGGTGGGGAAGAAG, the binding signal (log2 normalized intensity) was -1.3.
The result for GAGAGGTCAATGTCCAGTTCCGCTGCAGTT reads 4.53.
Next, TCCAAATTCCTTGGAATACATGGAATGCTC: 0.442; AGCCCAAGAAGCGTCAGTTGCCTCGCCAGA: -1.26.
